Experimental data reported in PubChem BioAssay (Tox21).
Values joined by “and” are separate entries in the source; they are usually repeats but may differ in a detail not shown here. Equal values may be shown once. Inconclusive results, whose numbers are uncertain, are shown with a selection of clear calls. Where the call is inconclusive, the potency comes from a doubtful curve fit. Active and inactive are the calls of the source. Unless noted, calls come from the whole dose curve; as a rule, active = well fitted inhibition curve with a large enough effect in the repeat runs; inconclusive = weak or mixed curves; inactive = no such curve, though single readings can be large or run the other way.

Target: Acetylcholinesterase (Homo sapiens) (UniProt P22303)
Sequence of UniProt P22303 (P22303 whole entry, looked up): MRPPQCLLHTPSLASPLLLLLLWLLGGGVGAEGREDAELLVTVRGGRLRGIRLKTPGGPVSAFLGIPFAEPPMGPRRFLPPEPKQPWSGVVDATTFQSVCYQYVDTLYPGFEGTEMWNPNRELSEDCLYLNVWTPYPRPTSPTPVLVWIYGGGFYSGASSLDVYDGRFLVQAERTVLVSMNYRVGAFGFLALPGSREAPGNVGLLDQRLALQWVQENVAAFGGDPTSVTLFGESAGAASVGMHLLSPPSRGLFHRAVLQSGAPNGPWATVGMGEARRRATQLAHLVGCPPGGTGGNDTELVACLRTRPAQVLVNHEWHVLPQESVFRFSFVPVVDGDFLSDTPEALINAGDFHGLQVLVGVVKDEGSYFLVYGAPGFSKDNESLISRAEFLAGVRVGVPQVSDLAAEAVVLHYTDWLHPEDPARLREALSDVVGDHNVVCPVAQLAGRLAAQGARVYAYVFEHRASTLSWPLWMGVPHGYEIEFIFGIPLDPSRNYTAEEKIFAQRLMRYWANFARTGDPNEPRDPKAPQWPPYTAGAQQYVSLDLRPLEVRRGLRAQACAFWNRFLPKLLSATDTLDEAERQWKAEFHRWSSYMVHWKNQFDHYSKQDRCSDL
Assay: Acetylcholinesterase (AChE) small molecule antagonists: enzyme-based qHTS assay with human liver microsomes (AID 1347399; calls by dose curve; note: nearly all actives have a fitted effect of over 60% in size)
Conditions: Potency: qHTS inhibition; series mostly up to 115 µM
Procedure, shortened: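 Recombinant human AChE (50 mU/mL in the enzyme mix) and human liver microsomes (0.25 mg/mL final) were preincubated with compound and NADPH (0.25 mg/mL final) for 30 min at 37 C. Acetylthiocholine/DTNB was then added; thiocholine was read colorimetrically after 10 min at room temperature.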
Potency is the fitted concentration of half-maximal effect; tags give direction and shape of the fitted curve.

| SMILES | Potency |
| --- | --- |
| CC(C)c1ccc(OP(=O)(Oc2ccc(C(C)C)cc2)Oc2ccc(C(C)C)cc2)cc1 | inconclusive: 90 µM [falling, single point] |
| CC(C)c1ccc(CO)cc1 | inactive |
| O=C(O)CC[N+](=O)[O-] | inconclusive: 71 µM [falling, partial curve] |
| O=P(O)(O)CN(CP(=O)(O)O)CP(=O)(O)O | inactive |
| Cc1ccc(OP(=O)(Oc2ccccc2)Oc2ccccc2)cc1 | inconclusive: 51 µM [falling, partial curve] |

Target: Cytochrome P450 2D6 (Homo sapiens) (UniProt P10635)
Sequence of UniProt P10635 (P10635 whole entry, looked up): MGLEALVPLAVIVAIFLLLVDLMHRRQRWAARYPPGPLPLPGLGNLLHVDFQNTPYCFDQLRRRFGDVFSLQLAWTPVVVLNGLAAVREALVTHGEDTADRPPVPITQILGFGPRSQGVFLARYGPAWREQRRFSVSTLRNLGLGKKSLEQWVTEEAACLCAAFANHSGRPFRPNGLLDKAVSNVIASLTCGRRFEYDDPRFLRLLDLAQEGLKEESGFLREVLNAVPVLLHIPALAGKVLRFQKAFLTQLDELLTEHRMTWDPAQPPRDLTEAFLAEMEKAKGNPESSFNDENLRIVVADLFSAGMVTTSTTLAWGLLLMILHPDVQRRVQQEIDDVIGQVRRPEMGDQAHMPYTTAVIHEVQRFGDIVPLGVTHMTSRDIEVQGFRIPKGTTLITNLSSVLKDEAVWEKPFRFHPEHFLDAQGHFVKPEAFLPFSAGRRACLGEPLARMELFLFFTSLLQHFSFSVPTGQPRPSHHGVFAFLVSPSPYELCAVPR
Assay: Cytochrome P450 Family 2 Subfamily D Member 6 (CYP2D6) small molecule antagonists: luciferase reporter qHTS assay (AID 1671196); note: nearly all actives have a fitted effect of over 50% in size
Conditions: P450-Glo CYP2D6 enzyme assay, luciferin luminescence, 1 h; series mostly up to 115 µM
Procedure, shortened: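 Luminescence (RLU), read 20 min after detection reagent, indicated CYP2D6 conversion of proluciferin to luciferin during a 1 h NADPH-dependent reaction at room temperature.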

| SMILES | Potency |
| --- | --- |
| Brc1ccc(Oc2ccc(Br)cc2Br)c(Br)c1 | inactive |
| CCOC(=O)CC(SP(=S)(OC)OC)C(=O)OCC (configuration not stated) | inconclusive: 46.1 µM [inhibitor] |
| CCCCCCCCCCCCCC[P+](CCCCCC)(CCCCCC)CCCCCC | active: 201 nM and active: 101 nM and active: 224 nM |
| Cc1ccc(N(SC(F)(Cl)Cl)S(=O)(=O)N(C)C)cc1 | inconclusive: 39.9 µM [inhibitor, partial curve] |
| Oc1ccc(Cc2ccc(O)cc2)cc1 | inconclusive: 71.6 µM [inhibitor, partial curve, poor fit] |
| Cl[C@H]1OCCO[C@@H]1Cl | inconclusive: 44.8 µM [inhibitor, partial curve] |
| CC(C)c1ccc(OP(=O)(Oc2ccc(C(C)C)cc2)Oc2ccc(C(C)C)cc2)cc1 | inconclusive: 20.2 µM [inhibitor, full curve, poor fit] and inconclusive: 89.4 µM [inhibitor, partial curve, poor fit] and inconclusive: 28.3 µM [inhibitor, partial curve, poor fit] |
